# Results: PMC4336329 (PLoS ONE, 2015)
# Hit rate of the full screen: of about 310,000 compounds, about 14,000 (4.5%) showed an effect of 50% or more. Effects have a minus sign here. The list shows a part of the results.
# Molecular target: human ether-à-go-go-related gene (hERG) potassium channel (human, UniProt Q12809)
# Assay: primary screen, population patch clamp on CHO cells stably expressing hERG
# 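Also: peak tail current of the secondary pulse compared with the same well before compound.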
# Sequence of human ether-à-go-go-related gene (hERG) potassium channel (Q12809 whole entry, looked up): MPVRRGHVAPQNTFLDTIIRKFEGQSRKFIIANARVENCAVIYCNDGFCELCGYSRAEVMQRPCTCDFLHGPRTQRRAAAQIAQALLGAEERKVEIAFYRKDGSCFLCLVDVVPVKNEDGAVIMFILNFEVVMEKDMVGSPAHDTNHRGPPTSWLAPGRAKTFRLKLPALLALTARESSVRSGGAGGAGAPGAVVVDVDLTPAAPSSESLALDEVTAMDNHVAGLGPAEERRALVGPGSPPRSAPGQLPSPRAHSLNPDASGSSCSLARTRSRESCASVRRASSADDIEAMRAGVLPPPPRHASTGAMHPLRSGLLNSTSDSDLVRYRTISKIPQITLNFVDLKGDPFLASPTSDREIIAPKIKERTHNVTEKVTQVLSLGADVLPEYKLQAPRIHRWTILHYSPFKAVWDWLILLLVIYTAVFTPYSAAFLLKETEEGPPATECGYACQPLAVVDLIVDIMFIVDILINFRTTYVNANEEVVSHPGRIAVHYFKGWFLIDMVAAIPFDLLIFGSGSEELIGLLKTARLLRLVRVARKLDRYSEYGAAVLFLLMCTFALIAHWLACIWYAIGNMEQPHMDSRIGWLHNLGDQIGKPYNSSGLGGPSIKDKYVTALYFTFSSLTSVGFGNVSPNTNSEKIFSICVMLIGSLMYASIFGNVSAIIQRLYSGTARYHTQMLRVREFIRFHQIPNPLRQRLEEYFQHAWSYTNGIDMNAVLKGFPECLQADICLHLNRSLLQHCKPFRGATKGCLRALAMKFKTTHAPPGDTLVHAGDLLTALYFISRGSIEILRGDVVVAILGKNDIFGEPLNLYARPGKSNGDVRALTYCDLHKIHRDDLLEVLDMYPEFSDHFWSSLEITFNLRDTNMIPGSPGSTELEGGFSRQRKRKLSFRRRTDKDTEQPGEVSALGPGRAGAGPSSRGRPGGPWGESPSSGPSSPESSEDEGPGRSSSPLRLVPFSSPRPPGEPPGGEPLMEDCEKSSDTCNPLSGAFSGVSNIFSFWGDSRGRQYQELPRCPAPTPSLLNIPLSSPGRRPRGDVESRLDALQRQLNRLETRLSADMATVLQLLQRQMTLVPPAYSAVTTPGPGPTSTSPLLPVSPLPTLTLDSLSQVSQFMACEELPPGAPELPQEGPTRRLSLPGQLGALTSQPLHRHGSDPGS
row,Structure (SMILES),"hERG current change (%, negative = inhibition) at 10uM [%]"
1,COc1ccc(C2C3=C(CC(C)(C)CC3=O)Nc3n[nH]c(C)c32)cc1 (stereo not drawn),-11.8
2,CC(NC(=O)COc1ccccc1)C(=O)OCC(=O)c1cc2ccccc2o1 (stereo not drawn),13.6
3,CC(=O)N1CCC2(CC1)C(C#N)=C(N)Oc1n[nH]c(CSc3ccc(C)cc3)c12,-4.58
4,Cc1ccc(CNCC2CCCO2)s1.Cl (stereo not drawn),2.71
5,CC1CCN(C(=O)CN(C)S(=O)(=O)c2cccc3nsnc23)CC1,-7.1
6,CS(=O)(=O)Nc1ccc(C(=O)N2CCN(c3ccccc3)CC2)cc1,-61.9
7,Cc1nn(C(C)C(=O)NCCc2ccccc2)c(=O)c2cc3occc3n12 (stereo not drawn),1.16
8,CCc1ccc(Nc2nnc(SC3CCOC3=O)s2)cc1 (stereo not drawn),-8.96
9,C/C(=N\OCC(=O)Nc1ccc(Br)cc1)c1cccs1,-10.5
10,O=C(CN(C1CCCCC1)S(=O)(=O)c1ccc(F)cc1)NC1CC1,-8
11,CCN(C(=O)CSc1nnc(NC2CCCCC2)s1)C1CCS(=O)(=O)C1 (stereo not drawn),-2.14
12,COc1ccc(CN2CCN(c3ccccc3OC)CC2)cc1OC.O=C(O)C(=O)O,-57.9
13,CC(=O)Nc1ccc(S(=O)(=O)Nc2nc3ccccc3nc2N2CCCC2)cc1,-8.01
14,Cc1ccc(C)n1CCN1CCN(C(=O)c2ccc(Cl)cc2)CC1,-50.3
15,COC(=O)Cc1[nH]nc2c1C(c1cc(OC)c(OC)c(OC)c1)C(C#N)=C(N)O2 (stereo not drawn),1.31
16,N#CCCn1nc(Cc2cccc3ccccc23)c(C#N)c1N,-7.98
17,CCC1CCCCN1CCCNC(=O)c1ccc2c(=O)n(Cc3ccc(OC)cc3)c(=O)[nH]c2c1 (stereo not drawn),-13.8
18,CC(C)NC(=O)N1CCC(n2nccc2NC(=O)CCOc2ccccc2)CC1,5.85
19,O=C(NN1C(=O)C2C3C=CC(C4CC34)C2C1=O)c1cccc(Br)c1 (stereo not drawn),9.46
20,O=C(NCc1ccc(C(F)(F)F)cc1)C1CC(c2c(Cl)cccc2Cl)=NO1 (stereo not drawn),0.629
21,COc1ccc([N+](=O)[O-])cc1NS(=O)(=O)c1cc(C(=O)O)ccc1OC,17.3
22,COc1cccc(CN(C)C(=O)CC23CC4CC(CC(C4)C2)C3)c1OC,-43.7

row,Structure (SMILES),"hERG current change (%, negative = inhibition) at 10uM [%]"
1,COc1cc(NC(=O)CN2C(=O)NC3(CCOc4ccccc43)C2=O)cc(OC)c1 (stereo not drawn),-3.2
2,CN(C)C(=O)C(=O)c1cccn1-c1ccccc1C#N,-3.47
3,O=C(Nc1ccccc1Cl)c1cc(S(=O)(=O)N2CCCC(C(=O)O)C2)ccc1F (stereo not drawn),3.43
4,CS(=O)(=O)N1CCN(c2ccc(NC(=O)COc3ccccc3)cc2)CC1,0.0465
5,CN1CCN(c2ccc(NC(=O)c3cccc(OCc4ccccc4)c3)cc2)CC1,-8.95
6,CC(C)CC(=O)NC(=S)NNC(=O)c1ccc(NC(=O)C2CCCCC2)cc1,4.66
7,CCN(CC(=O)Nc1cc(Cl)ccc1C)C(=O)Cn1c(=O)cnc2ccccc21,-46.5
8,COc1cc(C2C(C#N)=C(N)Oc3cc(O)ccc32)cc(OC)c1OC (stereo not drawn),4.91
9,CCCC(=O)c1cc(F)c(N2CCN(S(=O)(=O)c3ccccc3)CC2)cc1C,13.2
10,O=C(Cn1nnc2ccccc2c1=O)N[C@H](C(=O)O)c1ccccc1,22
11,Cc1ccc(C(=O)OCC(=O)Nc2cccc(S(=O)(=O)N3CCOCC3)c2)o1,-53.1
12,O=C(Nc1ccn(Cc2c(F)c(F)cc(F)c2F)n1)c1cccc(Cn2cc([N+](=O)[O-])cn2)c1,-2.12
13,Cn1c(=O)c2c(nc(N/N=C/c3c(O)n(-c4ccccc4)c(=S)[nH]c3=O)n2C)n(C)c1=O,8.04
14,CCCc1cc(=O)n2nc(N3CCC(C(=O)NCc4ccco4)CC3)sc2n1,-44.4
15,O=C(COC(=O)CCCc1c[nH]c2ccccc12)Nc1ccc2c(c1)OCO2,15.1
16,COc1ccc(N(C)S(=O)(=O)c2cccc(C(=O)NCC(c3ccco3)N3CCCC3)c2)cc1 (stereo not drawn),-33.9
17,O=C(Nc1nc(-c2ccc(F)c(F)c2)cs1)Nc1ccc(F)cc1F,12.1
18,CS(=O)(=O)N(CC(=O)N1CCCCCC1)c1ccc(Cl)cc1,2.37
19,Cc1ccccc1-c1nc(CS(=O)CC(=O)NCCN2CCOCC2)c(C)o1 (stereo not drawn),3.48
20,Cc1ccc(S(=O)(=O)NCc2ccccn2)c(C)c1,-4.7
21,COc1cccc(CN2CCc3ccc(NC(=O)CCc4ccc(C)cc4)cc3C2)c1O,-52.2
22,COc1ccc2c(c1)C(=O)C(=O)N2CC1COc2ccccc2O1 (stereo not drawn),18.1

row,Structure (SMILES),"hERG current change (%, negative = inhibition) at 10uM [%]"
1,N#C/C(=N\Nc1ccc(Cl)cc1)C(=N)N1CCCCC1,-31.1
2,COC(=O)c1ccc(S(=O)(=O)NCc2cccc(OC)c2)n1C,-8.28
3,COc1cc(NC(=O)CN(c2ccc(C)cc2)S(=O)(=O)c2c(C)n[nH]c2C)cc(OC)c1,10
4,Cc1noc(C)c1S(=O)(=O)Nc1ccc(C(=O)O)cc1,5.28
5,Cc1ccc(NC(=O)OCc2ccccc2S(C)=O)cc1 (stereo not drawn),-17.9
6,Cc1cccc(-c2nsc(SCC(=O)NCc3ccco3)n2)c1,15
7,O=C(NCCc1ccc(Cl)cc1)c1cc(-c2ccncc2)nc2ccccc12,4.23
8,O=C(NCCc1ccccc1)c1ccc2[nH]c(=O)c(=O)[nH]c2c1,11
9,O=C(Nc1ccccc1Br)c1ccc(N2CCCC2=O)cc1,-9.8
10,CCN1CCN(c2nnc(-c3ccc(C)cc3)c3ccccc23)CC1,-66.5
11,COc1ccc(/C=C/C(=O)N2CCN(c3ccccc3)CC2)cc1S(=O)(=O)N1CCOCC1,-17
12,CCOC(=O)C(CC)n1cnc2c(nnn2-c2ccc(C)cc2)c1=O (stereo not drawn),-41.4
13,Cc1oc2nc(SCC(=O)NCc3cccnc3)nc(N)c2c1C,-7.71
14,COC(=O)C1=C(C)n2nnnc2NC1c1ccc(Cl)cc1 (stereo not drawn),-19.8
15,COc1cc(NC(=O)c2ccc3c(SCC(=O)O)c4c(nc3c2)CCC4)cc(OC)c1OC,15.1
16,COc1ccc(S(=O)(=O)NCC2CC3C=CC2C3)cc1OC (stereo not drawn),-7.2
17,O=C(CSc1ncccn1)Nc1ncc(C(F)(F)F)cc1Cl,47.2
18,COc1cccc(NC(=O)C(C#N)Cc2ccncc2)c1 (stereo not drawn),-18.5
19,O=c1nc2n(c3cccc(Cl)c13)CCCCC2,1.51
20,COc1ccc(CCNC2CCCCCC2)cc1,-4.62
21,CC(=O)c1cccc(NCC(=O)N2CCN(S(=O)(=O)c3ccccc3)CC2)c1,-4.55
22,Cc1ccc(S(=O)(=O)N2CCCC(C(=O)N3CCN(C)CC3)C2)cc1 (stereo not drawn),16.4

row,Structure (SMILES),"hERG current change (%, negative = inhibition) at 10uM [%]"
1,O=C(CCCCl)Nc1c2c(nn1-c1ccccc1)CSC2,-0.0485
2,O=C(NC1CCCCCC1)c1cc2ccccc2oc1=O,-2.97
3,COCCC(=O)N1CCc2ccc(NC(=O)c3ccc(C(F)(F)F)cc3)cc2C1,-32.9
4,CC(=O)c1c(C)[nH]c(C(=O)OCC(=O)NCCCc2ccccc2)c1C,0.616
5,CCCCOCCCNC(=O)c1ccc(NC(C)=O)cc1,-5.31
6,Cc1ccccc1NC(=O)/C(C#N)=C\c1cc(C)n(-c2ccc(C(=O)O)cc2)c1C,16.5
7,Cc1ccc(-n2c(SCc3nc4ccccc4c(=O)[nH]3)nnc2-c2ccccc2O)cc1,-6.15
8,OCCC1CN(CCCc2ccccc2)CCN1Cc1ccc(F)cc1 (stereo not drawn),-66.6
9,COc1ccc(CCNCc2ccccc2F)cc1.O=C(O)C(=O)O,-22.8
10,Cc1cccc(CN2C(=O)CSc3ccc(C(=O)NC4CC4)cc32)c1,-9.34
11,CC(C)CN(C(=O)COC(=O)c1ccc2ccccc2c1)c1c(N)n(Cc2ccccc2)c(=O)[nH]c1=O,-18
12,COC(=O)c1cccc(NC(=O)CN2C(=O)c3ccccc3C2=O)c1,-7.83
13,Cc1cc(C)cc(OC(C)c2ccnc3nc(/N=C/N(C)C)nn23)c1 (stereo not drawn),14
14,CCC1Nc2ccccc2-c2nnc(SC)nc2O1 (stereo not drawn),-0.716
15,Cc1cccc(C)c1NC(=O)CSc1nnc(Cn2nnc(-c3ccccc3)n2)n1-c1ccccc1,-22.3
16,O=C(N/N=C/c1cccnc1)c1cc2ccccc2o1,6.62
17,CC(=O)Nc1ccc(C(=O)COC(=O)c2c(C)noc2C)c(F)c1,-3.47
18,Cn1c(-c2ccc(F)cc2)cnc1NCc1ccccc1F.O=C(O)C(=O)O,-27.3
19,N#CCN1C(=S)N=C(Nc2cccc(Cl)c2)C12CCCCC2,5.45
20,OCC1OC(n2cnc3ccccc32)CC1O (stereo not drawn),10.8
21,Cn1nnnc1Sc1ncnc2scc(-c3ccc(F)cc3)c12,-44.6
